The source of these data is patent publication US6570002 (Johns Hopkins, dated 2003).

In the assay the target is T1, Aven (human, UniProt Q9NQS1 1-362).
T1 construct: also called Bif-1
T1 sequence: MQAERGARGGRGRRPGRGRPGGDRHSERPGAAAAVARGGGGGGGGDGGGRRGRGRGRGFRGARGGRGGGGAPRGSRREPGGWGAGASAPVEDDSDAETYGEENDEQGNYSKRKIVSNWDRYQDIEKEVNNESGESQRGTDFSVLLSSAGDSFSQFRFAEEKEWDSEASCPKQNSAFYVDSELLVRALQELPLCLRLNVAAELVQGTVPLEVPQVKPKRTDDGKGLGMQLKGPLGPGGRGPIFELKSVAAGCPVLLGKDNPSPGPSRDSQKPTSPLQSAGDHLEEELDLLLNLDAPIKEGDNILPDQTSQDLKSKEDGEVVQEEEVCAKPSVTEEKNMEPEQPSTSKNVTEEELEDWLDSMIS
The assay is described as follows: yeast two-hybrid screen.

B1: Bcl-xL (other)
chain: not shown
notes: also called human Bcl-xL; hBcl-xL
Regarding B1, the binding result is “binds”.
